Laboratory results reported in publication PMC9911399, “Two distinct binding modes provide the RNA-binding protein RbFox with extraordinary sequence specificity”.
Changes are numbered by the printed parent chain; changes in the protein carry UniProt numbers. This is one part of the list.

B1: CCUGCGG (DNA:RNA)
RNA: GGGAGACCGGAAUUCAGAUUGUCCCCUGCGGUUAAAUCCCGUCGUAGCCACCA
DNA 1: CAATCTGAATTCCGGTCTCCC
DNA 2: TGGTGGCTACGACGGGATT
B2: CAAAAAU (DNA:RNA)
RNA: B1 RNA with C26A, U27A, G28A, C29A, G30A, G31U
DNA 1: CAATCTGAATTCCGGTCTCCC
DNA 2: TGGTGGCTACGACGGGATT
B3: GGAUCAU (DNA:RNA)
RNA: B1 RNA with C25G, C26G, U27A, G28U, G30A, G31U
DNA 1: CAATCTGAATTCCGGTCTCCC
DNA 2: TGGTGGCTACGACGGGATT
B4: CGGUUGG (DNA:RNA)
RNA: B1 RNA with C26G, U27G, G28U, C29U
DNA 1: CAATCTGAATTCCGGTCTCCC
DNA 2: TGGTGGCTACGACGGGATT
B5: AAGCGUA (DNA:RNA)
RNA: GGGAGACCGGAAUUCAGAUUGUCCAAGCGUAUUAAAUCCCGUCGUAGCCACCA
DNA 1: CAATCTGAATTCCGGTCTCCC
DNA 2: TGGTGGCTACGACGGGATT
B6: UGGUGUC (DNA:RNA)
RNA: B5 RNA with A25U, A26G, C28U, A31C
DNA 1: CAATCTGAATTCCGGTCTCCC
DNA 2: TGGTGGCTACGACGGGATT
B7: GAUGGAA (DNA:RNA)
RNA: B5 RNA with A25G, G27U, C28G, U30A
DNA 1: CAATCTGAATTCCGGTCTCCC
DNA 2: TGGTGGCTACGACGGGATT
B8: UGGGCUC (DNA:RNA)
RNA: B5 RNA with A25U, A26G, C28G, G29C, A31C
DNA 1: CAATCTGAATTCCGGTCTCCC
DNA 2: TGGTGGCTACGACGGGATT
B9: GAAAAAC (DNA:RNA)
RNA: B5 RNA with A25G, G27A, C28A, G29A, U30A, A31C
DNA 1: CAATCTGAATTCCGGTCTCCC
DNA 2: TGGTGGCTACGACGGGATT

biological target: T1, RBFOX1 RRM (Homo sapiens, UniProt Q9NWB1 109-208); assay: EMSA; HiTS-Eq, 1 nM pool, 10 min; buffer printed only for the single-RNA assays: 10 mM Tris pH 7.5, 150 mM NaCl, 3.4 mM EDTA, 0.001% NP-40, 30 C; conditions: tags: His6 N-terminal (pET28a); label: 5' 32P
T1 sequence: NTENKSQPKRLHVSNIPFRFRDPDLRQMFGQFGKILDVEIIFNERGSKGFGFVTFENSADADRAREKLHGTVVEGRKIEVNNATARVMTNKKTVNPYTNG
How it was run: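 A pool of RNA with 7 randomized nucleotides, 5′-radiolabelled and with DNA-annealed flanks, was equilibrated at 1 nM for 10 min in 50 µL with purified RbFox RRM, wild type or mutant, across increasing protein concentrations. Free RNA was separated by 8% native PAGE, excised, reverse-transcribed, barcoded by PCR and sequenced. Relative association constants were obtained from read-count changes of each RNA species versus the control reaction and normalised to the cognate motif.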

| Binder | binding signal |
| --- | --- |
| B1 | 0.0125 KA relative to UGCAUGU |
| B2 | 0.000541 KA relative to UGCAUGU |
| B3 | 0.00794 KA relative to UGCAUGU |
| B4 | 0.0172 KA relative to UGCAUGU |
| B5 | 0.00823 KA relative to UGCAUGU |
| B6 | 0.031 KA relative to UGCAUGU |
| B7 | 0.0124 KA relative to UGCAUGU |
| B8 | 0.0362 KA relative to UGCAUGU |
| B9 | 0.00263 KA relative to UGCAUGU |
